According to PubChem BioAssay AID1508624 (National Center for Advancing Translational Sciences (NCATS), 2021):
Out of some 48,000 compounds screened, about 120 (0.25%) were called active. Another 4% or so got no clear call; they are omitted. Calls come from the whole dose curve; as a rule, active = well fitted activation curve with a large enough effect; inconclusive = small, poorly fitted or top-dose-only effect, or another doubt; inactive = no such curve, though single readings can be large or run the other way. This is one part of the list.

test: Primary qHTS for Identification of Small Molecule Activators of Huntingtin-Antisense Promoter Activity; conditions: HEK293 HTT-AS promoter firefly luciferase reporter, 24 h; series mostly up to 57.5 µM; activity change, positive = activation: at the top concentration; note: nearly all actives have a fitted effect of over 55% in size
Description: Assay Provider: Russell L. Margolis M.D.
Department Neurology, Johns Hopkins University School of Medicine, Baltimore, MD
Huntington's Disease (HD) is a neurodegenerative disorder caused by a CAG repeat expansion in exon 1 of huntingtin (HTT). While there are currently no disease-modifying treatments for HD, recent efforts have focused on development of nucleotide-based therapeutics to lower HTT expression. As an alternative to siRNA or oligonucleotide methods, we hypothesized that suppression of HTT expression might be accomplished by small molecules that either (1) directly decrease HTT expression by suppressing HTT promoter activity or (2) indirectly decrease HTT expression by increasing the promoter activity of HTT-AS, the gene antisense to HTT that appears to inhibit expression of HTT.
We developed and employed a high throughput screen for modifiers of HTT and HTT-AS promoter activity using luminescent reporter HEK293 cells; of the 52,041 compounds tested, we identified 898 replicable hits. We used a rigorous stepwise approach to assess compound toxicity and the capacity of the compounds to specifically lower huntingtin protein in 5 different cell lines, including HEK293 cells, HD lymphoblastoid cells, mouse primary neurons, HD iPSCs differentiated into cortical-like neurons, and HD hESCs. We found no compounds which were able to lower huntingtin without lowering cell viability in all assays, though the potential efficacy of a few compounds at non-toxic doses could not be excluded.
SEQUENCE No. (1, 2, 3, etc.); […] (e.g., Cells, Incubation, Reagent, etc.); VALUE and DESCRIPTION.
1; Reagent; 4 uL; 2,500 Hek293 luciferase reporter cells per wells
3; Compound; 23 nL; Control inhibitor / compound library
5; Reagent; 2.5 uL; Firefly Luc reagent; Dual-Glo Luciferase Reporter Assay System (Promega)
6; Time; 10 min; room temperature incubation
7; Detection; Luminescence; FLuc
NOTES (numbers refer to sequence above)
1; High-throughput screening, measuring luminescence from a Hek293 luciferase reporter, was performed in 1,536 well white-walled tissue-culture treated plates. 2,500 cells were plated in 4 µL of Opti-MEM per well using a Multidrop Combi Reagent Dispenser (ThermoFisher).
2; Assay plates were cultured for 24 hours.
3; Control inhibitor (PTC124; final concentration of 50 uM) and compound library (at final concentrations of 460 nM - 57.5 uM) were added to the assay plate using the Kalypsis Pintool Robotic System equipped with 1536 pinheads.
4; Cells were then incubated for 24 hours at 37 degrees C prior to luminescence measurements.
5; In all cases, luminescence was measured using the Dual-Glo Luciferase Reporter Assay System (Promega) following the manufacturer's instructions.
6; Room temperature incubation.
7; Luminescence signal was obtained using the PerkinElmer ViewLux plate reader. Results were normalized to vehicle control (0% activity) and zero RLU (-100% activity).

Activity change, positive = activation, inactive:
CCc1ccc(NC(=O)c2cc(C)nn2-c2ccccc2)cc1 -9.6%
Cc1cc(=O)n(CC(=O)NC(C)c2ccccc2)c2c1c(C)nn2C (centres undefined) -15.4%
CCOC(=O)c1c(NC(=O)c2cc3ccccc3c(=O)o2)sc2c1CCC(C(C)(C)C)C2 (centres undefined) 3.75%
O=c1c2ccccc2nc(N2CCN(c3cccc(Cl)c3)CC2)n1-c1ccccc1 -31.4%
CCN(CC)CCCNC(=O)c1nn(-c2ccc(OC)cc2)c(=O)c2c1c1ccccc1n2C -8.13%
CCC(C(=O)N1CCN(c2ccc(OC)cc2)CC1)n1nc(C)n2c(cc3occc32)c1=O (centres undefined) -45.5%
Nc1ccc(S(=O)(=O)NC2(C(F)(F)F)NC(=O)N(c3cccc(Cl)c3)C2=O)cc1 (centres undefined) -3.89%
COC(=O)c1cccc(CN2C(=O)SC(Nc3ccc(Cl)cc3)C2=O)c1 (centres undefined) -19.9%
COc1ccc(Nc2c3c(nc4nncn24)CCC3)cc1Cl -39.6%
CCOC(=O)c1noc2ncnc(Nc3cccc(C(F)(F)F)c3)c12 6.62%
O=C(Nc1ccccc1C(F)(F)F)N1CCC2(CC1)Oc1ccccc1C(=O)N2Cc1ccccc1F -32.6%
CCCCOc1ccc(C(=O)Nc2nc3c(s2)CC(C)CC3)cc1 (centres undefined) -13.4%
CC(=O)Nc1ccc(NC(=O)CCc2c(C)nc3c(c(C)nn3-c3ccccc3)c2C)cc1 -2.67%
COCCNC(=O)c1ccc2c(c1)N(Cc1c(F)cccc1Cl)C(=O)c1ccccc1S2 -21%
CCOC(=O)c1c(C)oc2nc(C)nc(NCc3ccc(OC)cc3)c12 -6.35%
Cc1nnc(NCc2ccc(F)cc2)c2c1nnn2Cc1ccccc1Cl -1.78%
CCOc1ccc(NC(=O)CCn2nc(C)c(S(=O)(=O)N3CCCCC3)c2C)cc1 -14.7%
COc1ccccc1N1CCN(S(=O)(=O)c2c(C)sc3ncn(CC(=O)NCCN(C)C)c(=O)c23)CC1 7.04%
COc1ccc(OC)c(NC(=O)CSC2=Nc3ccccc3C3=NC(CCC(=O)NCCc4ccccc4)C(=O)N23)c1 (centres undefined) -21.8%
CCc1ccc(N2C(=O)N(CC(=O)C(C)(C)C)c3ccccc3S2(=O)=O)cc1 -19.2%
O=C(NCCC1=CCCCC1)c1ccc2c(c1)N(Cc1ccc(Cl)cc1)C(=O)c1ccccc1S2(=O)=O -5.89%
Cc1c(Cl)cccc1NC(=O)Cn1cnc(S(=O)(=O)N2CCCC2)c1 -6.95%
COc1ccc(CCNC(=O)Cn2nc(C)c3c(C)n(-c4ccc(C)cc4)nc3c2=O)c(OC)c1 -68.2%
COc1ccc(NC(=O)CC2C(=O)N(c3ccc(C)cc3)C(=O)N2Cc2ccc(C)cc2)cc1 (centres undefined) 14%
CCOc1ccc(CCNC(=O)C2CCN(Cc3nc(-c4ccccc4C)oc3C)CC2)cc1OCC -11.9%
O=C(CC(NCc1cccnc1)C(=O)O)Nc1ccc(O)cc1 (centres undefined) -16.6%
CCN(C(=O)CSc1nc2ccccc2n1CC(=O)N1CCCC(C)C1)c1ccccc1 (centres undefined) -23.8%
Fc1ccc(Nc2c(-c3ccco3)nc3ccccn23)cc1 -18.9%
COc1ccc(C=CC(=O)Nc2ccccc2C(=O)O)cc1OC -85%
Cn1c(=O)c(=O)n(C)c2cc(S(=O)(=O)Nc3ccc(Cl)c(C(F)(F)F)c3)ccc21 -20.9%
Cc1ccc(C2c3[nH]c4ccccc4c3CCN2C(=O)CCc2ccccc2)cc1 (centres undefined) -39.1%
CC(C)(C)c1ccc(C(=O)N2CCN(Cc3cc(=O)n4nc(-c5ccccc5F)sc4n3)CC2)cc1 -0.0911%
Cc1ccc(NC(=O)C2CCC(CNS(=O)(=O)c3ccc4c(c3)C(C)(C)C(=O)N4C)CC2)cc1 (centres undefined) -26.9%
CCOc1ccc(CNC(=O)Cc2ccc(NC(=O)N3CCCCc4ccccc43)cc2)cc1OC -8.44%
COc1cc(OC)c(NC(=O)Cn2cnc3nc4c(cc3c2=O)CCCC4)cc1Cl -7.77%
Cc1cc(=O)oc2cc(OCC(=O)Nc3c(C(C)C)cccc3C(C)C)ccc12 -16.6%
Clc1ccc(-c2nnn3c2nc(NCc2ccc4c(c2)OCO4)c2ccccc23)cc1 -0.526%
Cc1cnc2c(c1SCC(=O)NCc1ccccc1Cl)c(=O)n(C)c(=O)n2C -4.82%
CC(C)(Oc1ccc(Cl)cc1)C(=O)Nc1nnc2n1CCS2 -21.3%
CCCCNC(=O)CC1N=C2c3ccccc3N=C(SCC(=O)NCc3ccccc3Cl)N2C1=O (centres undefined) -13.5%
COc1cccc(C(=O)Nc2cccc(OCc3cc(=O)n4cccc(C)c4n3)c2)c1 -8.95%
Cc1ccc(NC(=O)CCC(=O)N2CCSc3ccccc32)cc1 -3.02%
O=C(COc1ccccc1)Nc1nnc(SCc2cc(=O)c3ccccc3[nH]2)s1 -37.1%
Clc1ccc(-c2noc(-c3cccnc3N3CCN(c4ccccc4)CC3)n2)cc1 -1.94%
CCc1ccccc1Nc1cc(C(=O)NCCCN(C)C2CCCCC2)c2ccccc2n1 -26.4%
CCOc1ccc(NC(=O)Cn2cc(C(=O)c3ccccc3)c(=O)c3cc4c(cc32)OCCO4)cc1 -34.1%
Cc1ccc(C)c(N2CCN(C(=O)c3nn(C)c4c3CS(=O)(=O)c3ccccc3-4)CC2)c1 -34.1%
Cc1ccn2c(Nc3ccccc3C)c(-c3cccnc3)nc2c1 -10.3%
Cc1cc(=O)oc2c3c(ccc12)OCN(Cc1ccc(Cl)cc1)C3 -8.61%
CCc1nn2c(=O)cc(COC(=O)c3ccccc3NC(=O)c3cccs3)nc2s1 1.61%
CCn1nc(C)c2c(-c3ccccc3)cc(=O)n(C(C)C(=O)NCCc3ccccc3)c21 (centres undefined) -27.5%
O=C(CCn1ccc2cc(S(=O)(=O)N3CCCC3)ccc21)NCc1ccccc1Cl -17.5%
COc1cccc(-c2nnc3sc(CN4CCCCC4)cn23)c1 -30.1%
CCC1CCCCN1C(=O)Cn1c(=O)n(CCCCCC(=O)NCc2ccccc2Cl)c(=O)c2sccc21 (centres undefined) -17.7%
O=C(NCCc1ccc(Cl)cc1)c1ccc2c(c1)N(Cc1cccc(Cl)c1)C(=O)c1ccccc1S2(=O)=O -14.2%
COc1cc(NC(=O)CCNC(=O)Cn2cnc3ccccc3c2=O)cc(OC)c1OC 7.67% [at 11.5 µM, percent change from vehicle, -100% = no light]
COc1ccc(CCn2c(=O)c3cccnc3n(CC(=O)Nc3c(C)cc(C)cc3C)c2=O)cc1OC 11%
CCCc1cc(N2CCN(c3ccc(OC)cc3)CC2)n2cnnc2n1 -22.9%
Cc1cc(C)c(NC(=O)Nc2csc3c2CCCC3)c(C)c1 -16.1%
CCC(=O)N1CCc2cc(Br)cc(S(=O)(=O)NCc3ccccc3)c21 -19.5%
O=C(CCCCCn1c(=O)[nH]c2ccccc2c1=O)NCc1ccc(Cl)cc1 16.3%
COc1ccccc1-c1nc(SCC(=O)Nc2ccc(C)c(C)c2)n[nH]1 2.15% [at 11.5 µM, percent change from vehicle, -100% = no light]
O=C(O)c1cc(=O)c2c(OCC(O)COc3cccc4oc(C(=O)O)cc(=O)c34)cccc2o1
CSc1ccc(CCNC(=O)C2CCN(c3ncnc4c3nc3n4CCCCC3)CC2)cc1 -8.95%
CCN(CC)C(=O)COc1ccc(-c2nnc(Nc3ccc(OC)c(C(=O)NC)c3)c3ccccc23)cc1 -1.01%
Cc1sc2ncn(CC(=O)N(C)c3cccc(C(F)(F)F)c3)c(=O)c2c1S(=O)(=O)N1CCN(c2ncccn2)CC1 -18.1%
Fc1ccc(-n2ncc3c(N4CCN(c5ccccc5F)CC4)ncnc32)cc1 1.19%
COc1ccc(C2c3c(-c4ccc(F)cc4)n[nH]c3C(=O)N2c2ccccc2)cc1OC (centres undefined) -14.5%
CCOc1ccc(CCNC(=O)c2cc3c(-c4ccccc4F)nn(C)c3s2)cc1OCC -41.9%
CCOC(=O)c1ccc(NC(=O)c2ccc(-c3cccc(Cl)c3C)o2)cc1 -21.9%
Cc1ccccc1CNC(=O)CCSCc1cnn(-c2ccccc2)c1-n1cccc1 -24.1%
O=c1c2oc3ccccc3c2ncn1Cc1ccc(Br)cc1 0.811%
COc1ccc(C2c3c(oc4ccccc4c3=O)C(=O)N2c2nc(C)c(C)s2)cc1 (centres undefined) -1.14% [at 11.5 µM, percent change from vehicle, -100% = no light]
Oc1c(Cl)cc(Cl)cc1Sc1cc(Cl)cc(Cl)c1O -90.9%
C=CCc1ccccc1OCC(O)CNC(C)C (centres undefined) -10.2%
O=C(COc1ccccc1)Nc1ccc2nc(SCC(=O)N3CCCC3)sc2c1 1.15%
COc1ccc(C2CC(=O)Oc3c2c(=O)n(C)c2ccccc32)c(OC)c1OC (centres undefined) -14.6%
Fc1ccc(N2CCN(c3ncnc4c3nc3n4CCCC3)CC2)cc1 -39.6%
CCOc1ccc(NC(=O)CS(=O)(=O)Cc2nc(-c3ccc(C)cc3)oc2C)cc1 -17.1%
CC(=O)OC(C)C[N+](C)(C)C (centres undefined) -3.5%
COc1ccc(OC)c2sc(N(CCCN(C)C)C(=O)c3ccco3)nc12 -24.2%
CCCCOc1ccc(CC(=O)NO)cc1
CCOc1cc(-c2nnc(SCC(=O)NCCCOC)nc2-c2ccc(OC)c(OCC)c2)ccc1OC 10.5%
COc1ccc(NC(=O)C(NS(=O)(=O)c2cccc3nsnc23)c2ccccc2)cc1 (centres undefined) 9.99%
CCC(=O)Nc1nnc(S(=O)(=O)N2CCCCCC2)s1 -9.8%
Cn1cc(S(=O)(=O)N2CCCCC2)cc1C(=O)NCc1ccc(Cl)cc1 -29.8%
Cc1ccc(N2CCN(S(=O)(=O)c3cc(Br)cc4c3N(C(=O)C3CC3)CC4)CC2C)cc1 (centres undefined) -13.6%
CCCCSc1nnc2c(n1)OC(c1ccc(C)s1)Nc1ccccc1-2 (centres undefined) 10.9%
CCC(CC)c1nn2cc(-c3ccccc3)nc2s1 -38.8%
CCS(=O)(=O)N1CC(=O)N(c2ccc(C)c(C)c2)C(C)(C(=O)NC2CCCCCC2)C1 (centres undefined) -2.59%
CCCN(C(=O)c1cn(CC(C)C)c(=O)c2cc(OC)c(OC)cc12)c1cccc(C)c1 -28.5%
COc1ccc(-c2cn3c(n2)sc2cc(C(=O)N4CCCCC4)ccc23)cc1 -14.3%
COc1ccc(N2CC(NC(=O)Cc3cccs3)CC2=O)cc1OC (centres undefined) -12.4%
Cc1cc(S(=O)(=O)Nc2ccc3[nH]c(=O)sc3c2)ccc1F -28.4%
